According to PMC4336329 (PLoS ONE, 2015):
In all, about 310,000 compounds went through this assay and about 2,200 (0.71%) showed an effect of 50% or more. The effect is printed as a negative number. The list shows a part of the results.

The compounds below were run against human ether-à-go-go-related gene (hERG) potassium channel (human, UniProt Q12809) (assay: primary screen, population patch clamp on CHO cells stably expressing hERG).
Chain of human ether-à-go-go-related gene (hERG) potassium channel (Q12809 whole entry, looked up): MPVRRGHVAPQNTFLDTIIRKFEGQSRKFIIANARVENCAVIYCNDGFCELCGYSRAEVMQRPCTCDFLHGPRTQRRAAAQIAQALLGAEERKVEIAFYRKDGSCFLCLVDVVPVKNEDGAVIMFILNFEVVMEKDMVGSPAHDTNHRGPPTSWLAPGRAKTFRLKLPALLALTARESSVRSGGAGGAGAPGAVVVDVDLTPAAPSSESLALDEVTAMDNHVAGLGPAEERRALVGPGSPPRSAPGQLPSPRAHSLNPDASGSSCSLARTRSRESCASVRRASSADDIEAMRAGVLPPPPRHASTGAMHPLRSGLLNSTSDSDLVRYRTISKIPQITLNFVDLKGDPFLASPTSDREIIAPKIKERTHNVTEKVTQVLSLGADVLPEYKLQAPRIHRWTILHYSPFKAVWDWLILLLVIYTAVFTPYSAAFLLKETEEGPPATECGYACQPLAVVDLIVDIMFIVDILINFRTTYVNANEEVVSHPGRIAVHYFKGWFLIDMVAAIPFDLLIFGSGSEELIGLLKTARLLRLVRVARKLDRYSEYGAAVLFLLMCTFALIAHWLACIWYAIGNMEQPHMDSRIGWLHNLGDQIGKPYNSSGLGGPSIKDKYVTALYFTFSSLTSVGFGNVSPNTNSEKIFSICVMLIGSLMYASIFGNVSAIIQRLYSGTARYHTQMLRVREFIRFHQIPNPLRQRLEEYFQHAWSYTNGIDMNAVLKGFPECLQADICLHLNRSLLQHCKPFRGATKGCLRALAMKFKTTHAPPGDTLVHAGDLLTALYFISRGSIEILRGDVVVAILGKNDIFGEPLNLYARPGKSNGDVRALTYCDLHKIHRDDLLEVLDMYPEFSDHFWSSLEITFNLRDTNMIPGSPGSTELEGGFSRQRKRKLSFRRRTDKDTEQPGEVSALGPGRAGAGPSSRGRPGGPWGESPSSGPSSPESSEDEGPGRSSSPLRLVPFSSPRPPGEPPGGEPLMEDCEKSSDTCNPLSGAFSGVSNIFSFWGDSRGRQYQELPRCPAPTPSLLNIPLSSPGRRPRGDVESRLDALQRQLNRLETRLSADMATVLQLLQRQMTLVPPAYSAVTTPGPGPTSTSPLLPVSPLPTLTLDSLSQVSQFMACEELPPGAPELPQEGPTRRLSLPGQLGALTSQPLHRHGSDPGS

Compound | hERG current change (%, negative = inhibition) at 1uM [%]
CC(NC(=O)COc1ccc(/C=N/NC(=O)C(=O)Nc2ccccc2Br)cc1)c1ccccc1 (stereo not shown) | 15.9
Cc1cc(C)cc(NC(=S)NCc2cccs2)c1 | -2.37
COc1ccc(NC(=O)CSc2nnc(Cn3cnc4ccccc43)n2C)cc1 | 4.38
CCCCCCCOc1ccc(C2(C)NC(=O)NC2=O)cc1 (stereo not shown) | 13.2
CC(C)CN(CCOc1cccc(N2C(=O)C3=C(CCCC3)C2=O)c1)CC(C)C | -6.8
Cc1cc(C)nc(N/N=C/c2cn[nH]c2-c2ccccc2)n1 | 5.15
Cc1ccc(NC(=O)c2ccc(OC(=O)CCN3C(=O)c4ccccc4C3=O)cc2)cc1 | 3.77
COc1ccc(-c2cc(C(=O)Nc3nc4ccccc4s3)c3ccccc3n2)cc1OC | 16.7
COc1ccc(C(=O)CCN2CCCC(C)C2)cc1.Cl (stereo not shown) | 3.18
COc1ccccc1C1=Nn2c(nnc2C2CCCCC2)SC1 | -1.01
COc1ccc(N(C(=O)c2cnccn2)C(C(=O)NC2CCCCC2)c2cc(OC)c(OC)c(OC)c2)cc1 (stereo not shown) | 18.5
CCN(C(=O)CSc1nc2cc(C(=O)OC)ccc2c(=O)n1Cc1ccco1)c1cccc(C)c1 | 7.87
CC1CCCC(NC(=O)C2CCN(C(=O)Nc3ccccc3)CC2)C1C (stereo not shown) | -0.501
CCOC(=O)Cn1nc(NC(=O)COc2ccc(F)cc2)cc1C | 6.51
COCc1nnc(NC(=O)CC(C)c2ccccc2)s1 (stereo not shown) | 21.9
COC(=O)C1=C(C)NC2=C(C(=O)C(C(=O)OC)C(c3ccc(OC)cc3)C2)C1c1ccccn1 (stereo not shown) | 5.1
COc1ccc(C(=O)OCc2cc(=O)n3c(C)csc3n2)cc1F | 8.66
CCOC(=O)c1c(NC(=O)CSc2nnc(CNc3ccc(OC)cc3)n2C)sc(C)c1C | 10.2
COc1ccc(S(=O)(=O)N2CCCCCC2)cc1C(=O)OCC(=O)Nc1cc(C)on1 | 5.47
CCCNC(=O)COC(=O)/C=C/c1ccco1 | 2
COc1cccc(CN2CCNC(=O)C2CC(=O)N2CCOc3ccccc3C2)c1OC (stereo not shown) | 10.6
c1ccc2c(CNC3CCCCC3)c[nH]c2c1 | -1.89
CCOc1ccc(C(=O)NCCc2cnc[nH]2)cc1 | 14.7
COc1cccc(NC(=O)CN2C(=O)NC(CCc3ccccc3)C2=O)c1 (stereo not shown) | -4.25
C/C(=N\Nc1ccccc1)c1c(O)cc(C)oc1=O | 11
O=C1/C(=C/c2ccc3c(c2)OCO3)Oc2cc(OCC(=O)N3CCC[C@H]3C(=O)O)ccc21 | 7.82
Cc1cc(C)c(C#N)c(N2CCCC2)n1 | 7.92
CC(=O)N/C(=C\c1ccc(F)cc1)C(=O)NC(Cc1c[nH]c2ccccc12)C(=O)O (stereo not shown) | -4.65

Compound | hERG current change (%, negative = inhibition) at 1uM [%]
Cc1cc(OCC(=O)NCCN2CCOCC2)cc(C)c1Cl | 12.8
OC(CN1CCCCC1)c1c[nH]c2ccccc12 (stereo not shown) | 7.27
COCCNC(=O)c1cccc(OC2CCN(Cc3ccc(OC(F)F)cc3)CC2)c1 | -75.4
C=CCNc1sc(C(=O)C2CC2)c(N)c1C#N | 4.1
Cc1nc(CSc2ccc(Cl)cc2)cc(N2CC(C)OC(C)C2)n1 (stereo not shown) | 6.49
CSc1ccccc1OCc1cc(C(=O)NC2CCc3ccccc32)no1 (stereo not shown) | 17.2
O=C(Nc1ccccc1Cl)O/N=C/c1ccncc1 | 6.9
O=C(OCc1cccc(C(F)(F)F)c1)c1ccc[nH]c1=O | 13.3
CCOC(=O)NC(=O)/C(C=Nc1ccc(Cl)c(Cl)c1Cl)=C(\C)O | 8.08
N#Cc1ccc(-c2csc(-c3ccno3)n2)cc1 | 9.79
CCOC(=O)C1CCN(C(c2cc3ccc(C)c(C)c3[nH]c2=O)c2nnnn2C2CCCCC2)CC1 (stereo not shown) | 7.02
Cn1ccnc1C(O)(c1ccccc1)c1ccccc1 | 0.199
Cc1nc(N)sc1C(=O)N/N=C/c1ccccc1[N+](=O)[O-] | 16.1
CCCn1c(N)c(N(CCOC)C(=O)COC(=O)CSc2cc(C)c3ccccc3n2)c(=O)[nH]c1=O | 11.4
CCOC(=O)c1cc2c(=O)n3ccccc3nc2n(CCOC)c1=NC(=O)c1ccncc1 | -1.41
CCOC(=O)c1ccc(NC(=O)COc2ccccc2CNCCc2ccccc2)cc1.Cl | -25.5
Cc1ccc(Oc2cc(NN3CCCCC3)c([N+](=O)[O-])cc2[N+](=O)[O-])c(Cl)c1 | 8.84
Cc1ccc(S(=O)(=O)N2CCCC2CNC(=O)C(=O)NCc2cccs2)cc1 (stereo not shown) | 15.2
COc1ccc(/C=N/NC(=S)Nc2cccc(C(=O)O)c2)cc1 | 3.2
Cc1ccc(S(=O)(=O)N2CCOCC2)cc1NC(=O)COc1ncnc2ccccc12 | 19.1
COc1cc(NC(=O)c2ccc(NS(=O)(=O)c3c(C)noc3C)cc2)cc(OC)c1 | 5.99
CCOC(=O)C1=C(CN2CCN(c3ccc(F)cc3)CC2)NC(=O)NC1c1cccs1 (stereo not shown) | -4.28
O=C(c1cccc(F)c1)N1CCN(c2cc(N3CCCCC3)c(F)cc2[N+](=O)[O-])CC1 | 5.29
O=C(c1ccc2c(=O)n3c(nc2c1)CCCCC3)N1CCCCC1 | 18.1
CC(Oc1ccccc1)C(=O)N1CCN(c2ccc(N3CCCCCC3)nn2)CC1 (stereo not shown) | -7.57
N/C(=N\OC(=O)c1ccc([N+](=O)[O-])cc1)c1ccc(Br)cc1 | 9.43
CCOc1ccccc1NC(=O)Cn1c(=O)n(CCC(=O)NC2CCCC2)c(=O)c2ccccc21 | 10
